Source: patent US20210221866A1, “PROTEASE-RESISTANT LIPIDATED GLP-1 ANALOGS” (MEDIMMUNE LIMITED, priority 2015, published 2021)
Like-named read-outs stand apart in the source and are kept apart here. Not every detail of the peptide structures is certain; ends, links or a residue may be inferred. Numbered stars: 1 amine (or outer) side, 2 acyl side, 3 side chain; on linkers, the order of the positions; unused ones are H or OH. Square brackets hold non-standard residues; d marks the D form. Side chains are listed from the residue outwards. Peptide text beside a SMILES is read from it. * marks the point of attachment. γGlu = O=C(O)[C@H](CCC(=O)[*:2])N[*:1]; αMeF = C[C@](N)(Cc1ccccc1)C(=O)O; αMeK = C[C@](N)(CCCCN)C(=O)O; Lauroyl = CCCCCCCCCCCC(=O)*; αMeS = C[C@](N)(CO)C(=O)O; AEEA = NCCOCCOCC(=O)O; Aib = CC(C)(N)C(=O)O

Assays:
Format in all cases: cell-based
GLP-1R (INS1e cells) = molecular target: T1, GLP-1R (INS1e cells) (Rattus norvegicus, UniProt P32301); test: INS1e assay, cAMP activity at GLP-1R
T1 construct: endogenous in cells; host or cells: INS1e cells
T1 sequence (P32301 22-463): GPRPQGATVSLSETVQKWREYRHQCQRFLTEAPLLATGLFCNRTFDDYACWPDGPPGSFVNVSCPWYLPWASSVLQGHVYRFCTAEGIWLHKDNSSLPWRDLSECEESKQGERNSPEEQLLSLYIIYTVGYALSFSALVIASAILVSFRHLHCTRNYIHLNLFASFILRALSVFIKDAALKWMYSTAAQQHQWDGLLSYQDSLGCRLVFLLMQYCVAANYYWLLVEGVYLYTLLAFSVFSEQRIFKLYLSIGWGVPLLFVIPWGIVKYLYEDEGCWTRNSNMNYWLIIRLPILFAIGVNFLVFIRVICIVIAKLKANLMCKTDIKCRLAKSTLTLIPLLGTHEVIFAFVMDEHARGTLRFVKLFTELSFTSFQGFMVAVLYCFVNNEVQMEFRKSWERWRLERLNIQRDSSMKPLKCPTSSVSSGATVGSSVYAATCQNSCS

[1] = molecular target: T2, human glucose-dependent insulinotropic peptide receptor (GIPR) (Homo sapiens, UniProt P48546); test: cAMP assay, human GIPR cells
T2 construct: expressed in transfected cells; host or cells: HEK293 cells or CHO cells
T2 sequence (P48546 22-466): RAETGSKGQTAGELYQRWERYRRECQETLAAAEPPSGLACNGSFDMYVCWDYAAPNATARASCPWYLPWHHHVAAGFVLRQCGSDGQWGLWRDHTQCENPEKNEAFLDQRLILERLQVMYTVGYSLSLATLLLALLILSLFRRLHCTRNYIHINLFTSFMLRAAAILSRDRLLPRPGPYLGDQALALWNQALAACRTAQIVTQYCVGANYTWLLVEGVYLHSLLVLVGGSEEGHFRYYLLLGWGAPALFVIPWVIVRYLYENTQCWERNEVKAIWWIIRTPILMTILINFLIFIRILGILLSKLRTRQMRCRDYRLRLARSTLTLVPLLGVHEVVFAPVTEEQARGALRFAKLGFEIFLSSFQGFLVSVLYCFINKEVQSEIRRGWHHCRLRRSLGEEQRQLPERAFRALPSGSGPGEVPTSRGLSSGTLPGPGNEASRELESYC
Experimental: (§1) Sample dilutions are made in duplicate.
(§2) A frozen cryo-vial of cells expressing the receptor of interest is thawed rapidly in a water-bath, transferred to pre-warmed assay buffer and spun at 240×g for 5 minutes. Cells are re-suspended in assay buffer at a batch-dependent optimized concentration (e.g. hGCGR cells at 2×10^5 cells/ml, hGLP-1R and hGIPR cells at 1×10^5 cells/ml).
(§3) To this, 5 μL cell suspension is added and the plates incubated at room temperature for 30 minutes.
(§4) cAMP levels are measured using a commercially available cAMP dynamic 2 HTRF kit (Cisbio, Cat #62AM4PEJ), following the two step protocol as per manufacturer's recommendations. In brief; anti-cAMP cryptate (donor fluorophore) and cAMP-d2 (acceptor fluorophore) are made up separately by diluting each 1/20 in conjugate & lysis buffer provided in the kit. 5 μL anti-cAMP cryptate is added to wells of the assay plate, and 5 μL cAMP-d2 is added to wells except non-specific binding (NSB) wells, to which conjugate and lysis buffer are added. […] EC50 values of the synthetic peptides determined in cAMP assays are then determined.
(§5) Data is transformed to % Delta F as described in the manufacturer's guidelines and analyzed by 4-parameter logistic fit to determine EC50 values. […] To compare the balance of activities at the GLP-1R and GCGR between different peptides and across different conditions, these can be correlated, where the EC50's are related to those of comparator peptides.

[2] = molecular target: T3, human GLP-1 receptor (GLP-1R) (Homo sapiens, UniProt P43220); test: cAMP assay, human GLP-1R cells
T3 construct: expressed in transfected cells; host or cells: HEK293 cells or CHO cells
T3 sequence (P43220 24-463): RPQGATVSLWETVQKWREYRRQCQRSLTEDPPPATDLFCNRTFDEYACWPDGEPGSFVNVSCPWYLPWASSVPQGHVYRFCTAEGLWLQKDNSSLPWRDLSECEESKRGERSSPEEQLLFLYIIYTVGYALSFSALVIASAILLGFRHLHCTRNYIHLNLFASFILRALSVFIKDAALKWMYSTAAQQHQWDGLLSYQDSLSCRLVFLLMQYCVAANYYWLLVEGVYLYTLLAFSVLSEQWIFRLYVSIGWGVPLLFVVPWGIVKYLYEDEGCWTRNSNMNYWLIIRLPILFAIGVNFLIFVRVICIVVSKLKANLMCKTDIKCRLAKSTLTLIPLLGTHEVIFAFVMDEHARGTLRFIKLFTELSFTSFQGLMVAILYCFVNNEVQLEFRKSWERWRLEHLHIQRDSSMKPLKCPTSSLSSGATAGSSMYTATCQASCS
Experimental: as §1, §2, §3, §4, §5

[3] = molecular target: T4, human glucagon receptor (GCGR) (Homo sapiens, UniProt P47871); test: cAMP assay, human GCGR cells
T4 construct: expressed in transfected cells; host or cells: HEK293 cells or CHO cells
T4 sequence (P47871 26-477): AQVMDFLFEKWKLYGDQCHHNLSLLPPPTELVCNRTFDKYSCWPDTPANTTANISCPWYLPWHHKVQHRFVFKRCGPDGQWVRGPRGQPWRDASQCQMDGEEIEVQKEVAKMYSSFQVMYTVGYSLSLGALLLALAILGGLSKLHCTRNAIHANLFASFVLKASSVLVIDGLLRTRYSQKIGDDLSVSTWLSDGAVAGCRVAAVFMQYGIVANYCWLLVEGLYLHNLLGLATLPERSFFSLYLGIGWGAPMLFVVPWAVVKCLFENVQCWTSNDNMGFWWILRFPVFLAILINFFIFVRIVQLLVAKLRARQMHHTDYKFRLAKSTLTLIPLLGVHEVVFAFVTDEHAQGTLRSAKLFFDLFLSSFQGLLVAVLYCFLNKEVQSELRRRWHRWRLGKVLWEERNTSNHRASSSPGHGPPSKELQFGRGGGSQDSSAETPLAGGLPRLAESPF
Experimental: as §1, §2, §3, §4, §5

SMILES	EC50 (GLP-1R (INS1e cells); Table 10, bis-lipidated peptides, mean of n1 and n2, read-out: INS1e assay EC50 Mean pM GLP-1R)	EC50 (GLP-1R (INS1e cells); Table 10, bis-lipidated peptides, replicate n1, read-out: INS1e assay EC50 GLP-1R n1)	EC50 (GLP-1R (INS1e cells); Table 10, bis-lipidated peptides, replicate n2, read-out: INS1e assay EC50 GLP-1R n2)	EC50 ([1]; Table 9, bis-lipidated peptides, first replicate, read-out: Primary assay EC50 GIP-R (n1))	EC50 ([1]; Table 9, bis-lipidated peptides, second replicate, read-out: Primary assay EC50 GIP-R (n2))	EC50 ([2]; Table 9, bis-lipidated peptides, mean of n1 and n2, read-out: Primary assay EC50 Mean pM GLP-1R)	EC50 ([2]; Table 9, bis-lipidated peptides, replicate n1, read-out: Primary assay EC50 GLP-1R n1)	EC50 ([2]; Table 9, bis-lipidated peptides, replicate n2, read-out: Primary assay EC50 GLP-1R n2)	EC50 ([3]; Table 9, bis-lipidated peptides, first replicate, read-out: Primary assay EC50 Gluc-R (n1))	EC50 ([3]; Table 9, bis-lipidated peptides, second replicate, read-out: Primary assay EC50 Gluc-R (n2))	EC50 (GLP-1R (INS1e cells); Table 12, tris-lipidated peptides, mean of n1 and n2, read-out: INS1e assay EC50 Mean pM GLP-1R)	EC50 (GLP-1R (INS1e cells); Table 12, tris-lipidated peptides, replicate n1, read-out: INS1e assay EC50 GLP-1R n1)	EC50 (GLP-1R (INS1e cells); Table 12, tris-lipidated peptides, replicate n2, read-out: INS1e assay EC50 GLP-1R n2)	EC50 ([1]; Table 11, tris-lipidated peptides, first replicate, read-out: Primary assay EC50 GIP-R (n1))	EC50 ([1]; Table 11, tris-lipidated peptides, second replicate, read-out: Primary assay EC50 GIP-R (n2))	EC50 ([2]; Table 11, tris-lipidated peptides, mean of n1 and n2, read-out: Primary assay EC50 Mean pM GLP-1R)	EC50 ([2]; Table 11, tris-lipidated peptides, replicate n1, read-out: Primary assay EC50 GLP-1R n1)	EC50 ([2]; Table 11, tris-lipidated peptides, replicate n2, read-out: Primary assay EC50 GLP-1R n2)	EC50 ([3]; Table 11, tris-lipidated peptides, first replicate, read-out: Primary assay EC50 Gluc-R (n1))	EC50 ([3]; Table 11, tris-lipidated peptides, second replicate, read-out: Primary assay EC50 Gluc-R (n2))
CCCCCCCCCCCC(=O)N[C@@H](CCC(=O)NCCOCCOCC(=O)NCCOCCOCC(=O)NCCCC[C@H](NC(=O)[C@H](Cc1ccc(O)cc1)NC(=O)[C@H](CO)NC(=O)[C@](C)(CO)NC(=O)[C@@H](NC(=O)[C@H](CC(=O)O)NC(=O)[C@H](CO)NC(=O)[C@@H](NC(=O)[C@](C)(Cc1ccccc1)NC(=O)[C@H](CO)NC(=O)CNC(=O)[C@H](CCC(=O)O)NC(=O)C(C)(C)NC(=O)[C@@H](N)Cc1c[nH]cn1)[C@@H](C)O)C(C)C)C(=O)N[C@@H](CCC(=O)O)C(=O)NCC(=O)N[C@@H](CCC(=O)O)C(=O)N[C@@H](C)C(=O)N[C@@H](C)C(=O)N[C@@](C)(CCCCN)C(=O)N[C@@H](CCC(=O)O)C(=O)N[C@@H](Cc1ccccc1)C(=O)N[C@H](C(=O)N[C@@H](C)C(=O)N[C@@H](Cc1c[nH]c2ccccc12)C(=O)N[C@@H](CCCCNC(=O)COCCOCCNC(=O)COCCOCCNC(=O)CC[C@H](NC(=O)CCCCCCCCCCC)C(=O)O)C(=O)N[C@H](C(=O)N[C@@H](CCC(=O)O)C(=O)NCC(=O)NCC(N)=O)C(C)C)[C@@H](C)CC)C(=O)O [compound 270] (H-H[Aib]EGS[αMeF]TSDV[αMeS]SYK([AEEA-AEEA-γGlu-Lauroyl])EGEAA[αMeK]EFIAWK([AEEA-AEEA-γGlu-Lauroyl])VEGG-NH2; N-terminus assumed)	1720 pM	1410 pM	2020 pM	≥ 22.3 nM	≥ 22.3 nM	32.9 pM	29.3 pM	36.5 pM	≥ 22.3 nM	≥ 22.3 nM										
CCCCCCCCCCCC(=O)N[C@@H](CCC(=O)NCCOCCOCC(=O)NCCOCCOCC(=O)NCCCC[C@H](NC(=O)CNC(=O)[C@H](CCC(=O)O)NC(=O)[C@H](CC(C)C)NC(=O)[C@H](CCCCNC(=O)COCCOCCNC(=O)COCCOCCNC(=O)CC[C@H](NC(=O)CCCCCCCCCCC)C(=O)O)NC(=O)[C@H](CO)NC(=O)[C@](C)(CO)NC(=O)[C@@H](NC(=O)[C@H](CC(=O)O)NC(=O)[C@H](CO)NC(=O)[C@@H](NC(=O)[C@](C)(Cc1ccccc1)NC(=O)[C@H](CO)NC(=O)CNC(=O)[C@H](CCC(=O)O)NC(=O)C(C)(C)NC(=O)[C@@H](N)Cc1c[nH]cn1)[C@@H](C)O)C(C)C)C(=O)N[C@@H](C)C(=O)N[C@@H](C)C(=O)N[C@@](C)(CCCCN)C(=O)N[C@@H](CCC(=O)O)C(=O)N[C@@H](Cc1ccccc1)C(=O)N[C@H](C(=O)N[C@@H](C)C(=O)N[C@@H](CCCCNC(=O)COCCOCCNC(=O)COCCOCCNC(=O)CC[C@H](NC(=O)CCCCCCCCCCC)C(=O)O)C(=O)N[C@H](C(=O)N[C@H](C(=O)N[C@@H](CCC(=O)O)C(=O)NCC(=O)NCC(N)=O)C(C)C)C(C)C)[C@@H](C)CC)C(=O)O [compound 464] (H-H[Aib]EGS[αMeF]TSDV[αMeS]SK([AEEA-AEEA-γGlu-Lauroyl])LEGK([AEEA-AEEA-γGlu-Lauroyl])AA[αMeK]EFIAK([AEEA-AEEA-γGlu-Lauroyl])VVEGG-NH2; N-terminus assumed)											4010 pM	4460 pM	3570 pM	≥ 20.2 nM	≥ 20.2 nM	30.3 pM	25.4 pM	35.1 pM	≥ 20.2 nM	≥ 20.2 nM
